Part of at least one peptide drawing is inferred or uncertain, most often the ends.
Molecular target: T1, Factor Xa (Homo sapiens, UniProt P00742)
T1 construct: purchased Enzyme Research Laboratories, Southbend, Ind
Assay: Factor Xa amidolytic activity towards chromogenic substrates
Assay type: biochemical
Experimental: To determine the effect of the APC-inhibiting peptides, PC311-325 and PC142-155, on the amidolytic activity of Factor Xa, amidolytic assays as described for APC in Example 5a3 were performed using 0.15 nM Factor Xa in the presence of increasing amounts of peptide. Peptide PC311-325 ranged in concentration from 0 to 100 μM whereas peptide PC142-155 ranged in concentration from 0 to 50 μM.
For the assay, 100 μl of 0.15 nM factor Xa, prepared in Example 5a5) were admixed with separate aliquots of either peptide prepared in TBS-BSA at pH 7.4 containing 0.02% NaN3 and 2 mM CaCl2 to form APC-peptide admixtures. After maintenance of the admixtures for 30 minutes at 37° C., 50 μl of 2.4 mM S-2222 in the same buffer were admixed to initiate the amidolytic reaction. The hydrolysis of the substrate was measured as described before.

T1 sequence (P00742 41-179 limits assumed): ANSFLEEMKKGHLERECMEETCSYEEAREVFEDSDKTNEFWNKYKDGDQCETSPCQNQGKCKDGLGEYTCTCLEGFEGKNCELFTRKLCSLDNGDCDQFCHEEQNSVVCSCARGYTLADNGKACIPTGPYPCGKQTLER
T1 sequence (P00742 235-488 limits assumed): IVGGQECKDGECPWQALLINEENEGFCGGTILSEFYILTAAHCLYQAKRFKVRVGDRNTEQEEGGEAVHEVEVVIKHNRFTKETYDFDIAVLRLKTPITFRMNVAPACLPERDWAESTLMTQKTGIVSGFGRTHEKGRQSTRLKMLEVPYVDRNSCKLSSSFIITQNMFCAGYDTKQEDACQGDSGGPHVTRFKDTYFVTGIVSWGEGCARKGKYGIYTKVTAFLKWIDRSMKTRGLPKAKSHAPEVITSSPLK

CSCC[C@H](NC(=O)[C@H](CCCNC(=N)N)NC(=O)[C@H](CCCCN)NC(=O)[C@H](Cc1c[nH]c2ccccc12)NC(=O)[C@@H]1CCCN1C(=O)[C@H](CCCNC(=N)N)NC(=O)CN)C(=O)N[C@@H](CCC(=O)O)C(=O)N[C@@H](CCCCN)C(=O)N[C@@H](CCCCN)C(=O)N[C@@H](CCCNC(=N)N)C(=O)N[C@@H](CO)C(=O)N[C@@H](Cc1c[nH]cn1)C(=O)N[C@@H](CC(C)C)C(=O)N[C@@H](CS)C(N)=O [PC142-155, Gly-Arg-Pro-Trp-Lys-Arg-Met-Glu-Lys-Lys-Arg-Ser-His-Leu]
effect on Factor Xa amidolytic activity towards chromogenic substrates: no significant effect
